Laboratory results published in PubChem BioAssay AID1460 (National Center for Advancing Translational Sciences (NCATS), 2008).
Values joined by “and” are separate entries in the source; they are usually repeats but may differ in a detail not shown here. Identical values can stand only once. Out of some 270,000 compounds screened, about 5,800 (2.1%) were called active. The shares of active, inactive and inconclusive entries below differ from those in the screen. Calls follow the shape of the dose curve; as a rule, active = well fitted inhibition curve with a large enough effect; inconclusive = small, poorly fitted or top-dose-only effect; inactive = flat fitted curve, though single readings scatter. A potency beside an inconclusive call is a rough fit, not a confirmed value.

These compounds were tested against Microtubule-associated protein tau (Homo sapiens) (UniProt P10636) (assay: qHTS for Inhibitors of Tau Fibril Formation, Thioflavin T Binding). Conditions: recombinant tau K18 P301L, heparin-induced fibrillization, ThT fluorescence; series mostly up to 57.4 µM; activity, negative = inhibition: at the top concentration.
Chain of UniProt P10636 (P10636 whole entry, looked up): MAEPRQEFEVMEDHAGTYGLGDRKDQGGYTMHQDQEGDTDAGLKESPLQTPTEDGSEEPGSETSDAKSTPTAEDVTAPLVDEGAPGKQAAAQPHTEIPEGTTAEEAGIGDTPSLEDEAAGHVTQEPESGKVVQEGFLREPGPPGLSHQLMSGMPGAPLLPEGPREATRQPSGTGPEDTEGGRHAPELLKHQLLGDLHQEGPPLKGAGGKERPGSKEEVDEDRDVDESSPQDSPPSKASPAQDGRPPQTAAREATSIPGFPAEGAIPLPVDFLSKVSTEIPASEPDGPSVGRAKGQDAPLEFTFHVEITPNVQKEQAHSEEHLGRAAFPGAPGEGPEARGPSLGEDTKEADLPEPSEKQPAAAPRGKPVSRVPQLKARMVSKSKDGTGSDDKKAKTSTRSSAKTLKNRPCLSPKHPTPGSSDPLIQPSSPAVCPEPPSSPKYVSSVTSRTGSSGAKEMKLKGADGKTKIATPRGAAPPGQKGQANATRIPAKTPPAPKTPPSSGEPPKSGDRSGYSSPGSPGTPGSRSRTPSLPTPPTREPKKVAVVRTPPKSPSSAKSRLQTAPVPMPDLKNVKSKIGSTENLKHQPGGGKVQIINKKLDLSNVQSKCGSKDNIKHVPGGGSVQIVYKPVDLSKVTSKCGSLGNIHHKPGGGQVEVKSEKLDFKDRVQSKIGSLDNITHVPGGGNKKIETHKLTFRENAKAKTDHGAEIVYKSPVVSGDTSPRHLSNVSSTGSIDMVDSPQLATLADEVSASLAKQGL
Procedure, shortened: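 Fibril formation assay: tau K18 P301L at 15 uM with trace Alexa 594 label, heparin inducer 20 uM, pH 7 sodium acetate buffer, 37 C for 6 hr; endpoint ThT signal.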
% is scaled to controls: 0 for no effect and ±100 for the full control effect; potency is read from the fitted curve at half-maximal effect; tags tell the direction and shape of the fitted curve.
Also: nearly all actives have a fitted effect of over 55% in size.

Q: With `CCc1ccc(CNc2ncnc3onc(-c4ccc(Cl)cc4)c23)cc1` as the compound, how does the “activity, negative = inhibition” value read?
A: The value was inactive: 1.31%.

Q: How did the “activity, negative = inhibition” value turn out when `CCOc1ccc(CN(C(=O)c2cc(=O)c3cc(Cl)ccc3o2)C2CCS(=O)(=O)C2)cc1` (centres undefined) was run?
A: The value was inactive: -16.3%.

Q: How did the Potency turn out when `COc1ccc(-n2nnnc2S(=O)(=O)Cc2ccc(C(=O)O)cc2)cc1` was run?
A: The Potency was inconclusive: 3.55 µM [inhibitor, full curve].

Q: For `Cc1cccc(N2C(=O)CC(N3CCN(C(=O)c4ccccc4)CC3)C2=O)c1` (centres undefined), which “activity, negative = inhibition” value is on record?
A: The value was inactive: 4.19%.

Q: How did the Potency turn out when `S=c1[nH]nc(-c2ccc(Cl)cc2)n1/N=C/C=C/c1ccco1` was run?
A: Its Potency is inconclusive: 8.91 µM [inhibitor, full curve].

Q: With `COc1cc2nc(Nc3ccc(C)c(C)c3)nc(N)c2cc1OC` as the compound, how does the “activity, negative = inhibition” value read?
A: The value was inactive: -7.63%.

Q: For `Cc1nc2ccn(Cc3cccs3)c(=O)c2cc1C(=O)NCc1ccc(Cl)cc1`, which Potency is on record?
A: Its Potency is inconclusive: 39.8 µM [inhibitor, single point].

Q: `COc1cccc(C2=NOC(C(=O)Nc3ccc(C(C)=O)cc3)C2)c1` (centres undefined) was tested. Which Potency did it give?
A: The Potency was inconclusive: 12.6 µM [inhibitor, partial curve].

Q: With `Cc1cc([N+](=O)[O-])cc2c1NC(=O)C2(O)N1CCCCCC1` (centres undefined) as the compound, how does the “activity, negative = inhibition” value read?
A: The value was inactive: 3.81%.

Q: For `Cc1ccc(C(=O)OCc2nnc(-c3ccc(Br)cc3)o2)cc1`, which Potency is on record?
A: The Potency was inconclusive: 6.31 µM [inhibitor, partial curve].

Q: With `CCOC(=O)COc1ccc2c(=O)c(-c3ccccc3)coc2c1` as the compound, how does the Potency read?
A: The Potency was inconclusive: 0.708 µM [inhibitor, full curve].

Q: How did the Potency turn out when `COc1cc2[nH]c(=S)nc(NCCc3ccc(C)cc3)c2cc1OC` was run?
A: Its Potency is inconclusive: 28.2 µM [activator, single point].

Q: With `CS(=O)(=O)N1CCN(c2ccc(NC(=O)CSc3ccc(Cl)cc3)cc2)CC1` as the compound, how does the Potency read?
A: Its Potency is inconclusive: 0.562 µM [inhibitor, full curve].

Q: How did the Potency turn out when `Cc1cccc(OC(=O)c2nc(SCc3ccccc3F)ncc2Cl)c1` was run?
A: The Potency was inconclusive: 10 µM [inhibitor, partial curve].

Q: How did the “activity, negative = inhibition” value turn out when `CC(=O)c1ccc(NC(=S)NNC(=O)NC2CCCCC2)cc1` was run?
A: The value was inactive: -9.16%.

Q: Which Potency does the source give for `CCOc1ccc(S(=O)(=O)N(CC(=O)N/N=C/c2ccc(-c3ccc([N+](=O)[O-])cc3)o2)c2ccccc2)cc1` here?
A: Its Potency is inconclusive: 12.6 µM [inhibitor, partial curve].

Q: For `COc1cc(/C=N/NC(=O)COc2cccc(F)c2)ccc1OS(=O)(=O)c1ccc(C)cc1`, which Potency is on record?
A: The Potency was inconclusive: 15.8 µM [inhibitor, partial curve].

Q: How did the Potency turn out when `COc1ccc(S(=O)(=O)Cc2ccc(C(=O)N3CCN(c4cc(Cl)ccc4C)CC3)o2)cc1` was run?
A: Its Potency is inconclusive: 17.8 µM [inhibitor, partial curve].

Q: With `O=c1c2c(nc3c(-c4ccc(Cl)cc4)c[nH]n13)CCC2` as the compound, how does the Potency read?
A: The Potency was inconclusive: 15.8 µM [inhibitor, partial curve].

Q: Which Potency does the source give for `COC(=O)c1ccc(NC(=O)C(=O)NCCc2sc3nc(-c4ccc(OC)cc4)nn3c2C)cc1` here?
A: The Potency was inconclusive: 0.708 µM [inhibitor, full curve, poor fit].

Q: `Cc1ccc2c(Cl)cc(Cl)c(OCC(=O)OCC(=O)Nc3ccc(C#N)cc3)c2n1` was tested. Which “activity, negative = inhibition” value did it give?
A: Its value is inactive: 9.31%.

Q: `O=c1oc2c(O)c(O)cc3c(=O)oc4c(O)c(O)cc1c4c23` was tested. Which Potency did it give?
A: The Potency was active: 12.6 µM and active: 31.6 µM and active: 14.1 µM.

Q: Which Potency does the source give for `COc1ccc(CCNC(=O)c2cc(=O)c3c(C)cc(C)cc3o2)cc1OC` here?
A: The Potency was inconclusive: 3.16 µM [inhibitor, single point].

Q: With `Cc1cccc(OCCNc2cc(N3CCOCC3)ccc2[N+](=O)[O-])c1` as the compound, how does the Potency read?
A: Its Potency is active: 7.94 µM.

Q: `O=C(NCC1CCCO1)c1ccc(NS(=O)(=O)c2cccs2)cc1` (centres undefined) was tested. Which Potency did it give?
A: The Potency was inconclusive: 2.82 µM [inhibitor, partial curve, poor fit].

Q: How did the Potency turn out when `CCC1CCCCN1CCCNC(=O)c1sc2nc(C)cc(C)c2c1-n1cccc1` (centres undefined) was run?
A: The Potency was inconclusive: 2.82 µM [inhibitor, single point].

Q: Which “activity, negative = inhibition” value does the source give for `O=C(CSc1nc2ccccc2s1)NNC(=S)Nc1ccccc1` here?
A: Its value is inactive: 6.36%.

Q: How did the Potency turn out when `Cn1cccc1/C=N/N1CCN(Cc2ccccc2)CC1` was run?
A: Its Potency is inconclusive: 39.8 µM [inhibitor, single point].

Q: Which “activity, negative = inhibition” value does the source give for `Cc1cc(Br)ccc1NC(=O)CN1C(=S)NC(C)(C)CC1C` (centres undefined) here?
A: The value was inactive: 16%.

Q: With `Cc1ccc(CN2CCN(Cc3c[nH]c4ccccc34)CC2CCO)o1` (centres undefined) as the compound, how does the Potency read?
A: Its Potency is inconclusive: 25.1 µM [inhibitor, partial curve, poor fit].

Q: How did the “activity, negative = inhibition” value turn out when `COc1ccc(Cl)cc1NC(=S)Nc1ccccc1F` was run?
A: Its value is inactive: 4.02%.

Q: `COC(=O)c1nnc(-c2ccccc2)c(-c2ccccc2)n1` was tested. Which “activity, negative = inhibition” value did it give?
A: Its value is inactive: 0.74%.

Q: How did the “activity, negative = inhibition” value turn out when `CCc1cc2c(cc3c(=O)n(CC(=O)NC(C)C)nc(CC)n32)s1` was run?
A: Its value is inactive: -6.4%.

Q: `CNC(=O)c1ccc(-c2sc3nc(N4CCOCC4)c4c(c3c2N)CC(C)(C)OC4)o1` was tested. Which Potency did it give?
A: Its Potency is inconclusive: 1.78 µM [inhibitor, full curve].

Q: With `COc1ccccc1NC(=O)c1cc2c(n(-c3ccc(C)cc3)c1=O)CC(C)(C)CC2=O` as the compound, how does the Potency read?
A: The Potency was inconclusive: 0.794 µM [inhibitor, single point].

Q: How did the “activity, negative = inhibition” value turn out when `CC[C@H](C)[C@@H](NC(=O)O[C@@H]1C(=O)c2ccc(OC)cc2O[C@H]1c1cccc(C(F)(F)F)c1)C(=O)OC` was run?
A: The value was inactive: -2.28%.

Q: How did the Potency turn out when `Oc1cccc(-c2nc(-c3cccs3)c(-c3cccs3)[nH]2)c1` was run?
A: The Potency was active: 15.8 µM.

Q: With `O=c1cc(C(F)(F)F)nc(-c2cccnc2)[nH]1` as the compound, how does the “activity, negative = inhibition” value read?
A: Its value is inactive: -8.62%.

Q: With `Cc1ccccc1OCCSc1nnc(-c2ccc([N+](=O)[O-])cc2)o1` as the compound, how does the Potency read?
A: The Potency was inconclusive: 1.58 µM [inhibitor, full curve].

Q: With `O=C(NCC(c1ccc2c(c1)OCO2)N1CCOCC1)C(=O)Nc1ccc(Cl)cc1` (centres undefined) as the compound, how does the Potency read?
A: The Potency was inconclusive: 0.891 µM [inhibitor, single point].

Q: For `CCc1cc(C(c2ccccn2)N2CCN(C)CC2)c(NC(=O)c2ccccc2)s1` (centres undefined), which Potency is on record?
A: Its Potency is inconclusive: 15.8 µM [inhibitor, partial curve].

Q: How did the Potency turn out when `COC(=O)c1sc(N2C(=O)C(=O)/C(=C(/O)c3ccc(C)cc3)C2c2ccco2)nc1C` (centres undefined) was run?
A: Its Potency is inconclusive: 20 µM [inhibitor, partial curve].

Q: Which “activity, negative = inhibition” value does the source give for `COc1cccc(C2=NOC(C(=O)N3CCc4ccccc4C3)C2)c1` (centres undefined) here?
A: Its value is inactive: -8.76%.

Q: Which Potency does the source give for `CCCN(CCC)CCCNC(=O)c1sc2nc3n(c(=O)c2c1C)CCC3` here?
A: The Potency was inconclusive: 39.8 µM [inhibitor, single point].
